Measured values as given in patent US20260176344A1 (SUZHOU ALPHAMAB, published 2026).
Changes are numbered by the printed parent chain. Where two headings read alike, the source gives them in different places. Blank lines part the entries; values can stand above or below the binder they belong to.

Legend:
[1] = target: T1, human GIPR expressed on HEK293T cells (human, UniProt P48546 22-466); assay: flow cytometry on 293T-GIPR cells, 100 µg/mL, anti-human IgG-APC
T1 construct: whole, on cells; Two cell lines are used (293T-GIPR; 293T-GIPRFL-GFP-PURO-5, stably expressing full-length human GIPR on the membrane); both are treated as human GIPR on cells; also called 293T-GIPR; 293T-GIPRFL-GFP-PURO-5
T1 sequence (looked up): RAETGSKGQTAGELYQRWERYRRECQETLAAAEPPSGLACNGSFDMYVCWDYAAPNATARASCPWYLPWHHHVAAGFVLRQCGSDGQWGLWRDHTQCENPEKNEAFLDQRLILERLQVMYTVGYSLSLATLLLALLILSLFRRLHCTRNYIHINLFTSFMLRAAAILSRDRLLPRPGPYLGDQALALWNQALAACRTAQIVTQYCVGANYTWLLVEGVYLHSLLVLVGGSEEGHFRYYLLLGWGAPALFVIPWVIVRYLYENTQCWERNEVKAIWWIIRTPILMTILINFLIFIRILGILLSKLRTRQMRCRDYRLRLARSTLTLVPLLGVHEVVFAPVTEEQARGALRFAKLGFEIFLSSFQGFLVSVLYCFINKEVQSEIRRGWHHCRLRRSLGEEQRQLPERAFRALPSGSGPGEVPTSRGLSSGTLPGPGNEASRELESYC

[2] = target: T2, GIPR-ECD-chis (a his tag-fused human GIPR extracellular region fragment) (human, UniProt P48546 22-138, limits assumed); assay: BLI, Fc fusion on AHC sensor, GIPR-ECD-chis in solution
T2 construct: extracellular domain; not shown: his tag
T2 sequence (looked up): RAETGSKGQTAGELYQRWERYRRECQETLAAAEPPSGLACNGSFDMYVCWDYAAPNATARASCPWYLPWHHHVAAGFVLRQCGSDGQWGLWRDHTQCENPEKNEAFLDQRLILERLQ

[3] = target: T2, GIPR-ECD-chis (a his tag-fused human …); assay: as above; remark: listed apart in the source
[4] = target: T2, GIPR-ECD-chis (a his tag-fused human …); assay: as above; remark: listed apart in the source
[5] = target: T1, human GIPR expressed on HEK293T cells; assay: flow cytometry on 293T-GIPR cells, 10 µg/mL, anti-human IgG-APC
[6] = target: T1, human GIPR expressed on HEK293T cells; assay: cell-based or functional assay
[7] = target: T2, GIPR-ECD-chis (a his tag-fused human …); assay: BLI, Fc fusion on AHC sensor, GIPR-ECD-chis in solution; remark: listed apart in the source

MFI [1]: 6960 MFI
Kd [2]: 1.19 nM
koff [2]: 0.000285 s⁻¹
kon [2]: 239000 M⁻¹ s⁻¹
Kd [3]: 0.162 nM
koff [3]: 3.16e-05 s⁻¹
kon [3]: 196000 M⁻¹ s⁻¹
Kd [4]: 0.59 nM
koff [4]: 8.69e-05 s⁻¹
kon [4]: 147000 M⁻¹ s⁻¹
MFI [5]: 5140 MFI
MEAN cAMP expression level (pM), +100 ng/mL GIP-C12H4-Fc4, fusion protein 0.1 µg/mL [6]: 119 pM
MEAN cAMP expression level (pM), +100 ng/mL GIP-C12H4-Fc4, fusion protein 1 µg/mL [6]: 52.7 pM
MEAN cAMP expression level (pM), +100 ng/mL GIP-C12H4-Fc4, fusion protein 10 µg/mL [6]: 5.79 pM
B1: iGI-72-Ld-Fc (Fc fusion)
chain: QVQLVESGGGLVQPGGSLRLSCAASRYTLDYYAIGWFRQAPGKEREGVSCINSKDGSTYYADSVKGRFTISKDNAKNTVYLQMNSLKPEDTAVYYCAAGYDPWSGIPPVQAMCVMGYDYWGQGTQVTVSS[human IgG1 Fc not written out]
notes: also called iGI72-72-Ld-Fc

Kd [7]: 2.77 nM
koff [7]: 0.000575 s⁻¹
kon [7]: 208000 M⁻¹ s⁻¹
Kd [2]: 0.903 nM
koff [2]: 0.000182 s⁻¹
kon [2]: 202000 M⁻¹ s⁻¹
B2: huGI-72v5-Ld-Fc (Fc fusion)
chain: B1 chain with A23S, A75S, K87R, P88A, Q125L
notes: also called huG1-72v5 (VHH part)
